PMC12136788
Some of the results follow.

T1: UNK ZnF1-3 (human, UniProt Q9C0B0 31-174)
T1 sequence: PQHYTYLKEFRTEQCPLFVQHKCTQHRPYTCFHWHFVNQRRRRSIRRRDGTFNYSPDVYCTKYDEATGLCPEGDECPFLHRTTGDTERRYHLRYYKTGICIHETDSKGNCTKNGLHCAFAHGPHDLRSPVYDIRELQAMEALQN

B1: 98667831_98668982_2498_CDS_ENSG00000065150_ENST00000490680|human|control|control (ssRNA)
RNA: GGGAGUUCUACAGUCCGACGAUCCUCAUCUUGUAGUGACUCUUCGACCUGUUCAUCAUAGUCUUCAUCUUGUCUUUUAACUUGUCGUAAUUCUUGAUUUUUAAAAUGUUCUUCAAGCUUUGCUUUCAAUAUACCUCCCAGUUCCAACAGAGGAUUGAGCAUCA
B2: 17019923_17020043_2989_CDS_ENSMUSG00000059273_ENSMUST00000098789|mouse|control|control (ssRNA)
RNA: GGGAGUUCUACAGUCCGACGAUCUGGACGCUGCCGGGUGUUUGGAGGCCCAGGGGGUGUGGAACGGUGUAGCCUAGGAUCUAGAGCAGGUAGGGACUGCAGGGCAGCAGGCACUGGGGGCACGUCCUGCUUGGGGAUGGGCAGCAACAGAGGAUUGAGCAUCA
B3: chr11:105962086:105962087:+_ENSG00000149313_ENST00000278618|hu_hu|FALSE|FALSE (ssRNA)
RNA: GGGAGUUCUACAGUCCGACGAUCGCCUAUAUCCAAGUUUAAUGGAGAUAGAUCAAAUUCAAGCCGCUGCAAUUCAAAUCCUAGUCCAACACCAAUGGCUUUUAUGAAGCUUUCCUUAAGUGCCCAAUUCCUAUAAAACAUAUCCAACAGAGGAUUGAGCAUCA
B4: chr11:134117265:134117266:+_ENSG00000151502_ENST00000281187|hu_hu|motif|central (ssRNA)
RNA: GGGAGUUCUACAGUCCGACGAUCGUUGGAAAAUGAACGUGUGUUGUCAGUUGGGAGGCAAAGGAAUUGACAAAUGCUUCGGGUUAGAAUAUCAGCUAGGAAAAGGAGGGAUACAGAGCCUGACCUCAUGCUCUGAAAAGGCAACAACAGAGGAUUGAGCAUCA
B5: chr4:83276511:83276512:-_ENSG00000138668_ENST00000353341|hu_hu|motif|central (ssRNA)
RNA: GGGAGUUCUACAGUCCGACGAUCCUUCACCACCUGUUGGGGAUAAGUUGCAAAUGGAAUAAUUUAGUAUGGUUUGUAGCGGUUUUGAUGACCACCUCGCCUGGAUACCUUCCCAUAACCACUCUGCUGGUCACCACCUCUUCCCAACAGAGGAUUGAGCAUCA
B6: chr2:177202359:177202360:+_ENSG00000128654_ENST00000249442|hu_hu|FALSE|FALSE (ssRNA)
RNA: GGGAGUUCUACAGUCCGACGAUCCAUUCAAGUAAAACAUAUUUCAAAAGUUAAGACUCCUGAGACUAACACAUAACUCUAUGACAGCCUGCCUUUACCACGAUCUUCAAAAUAGUGCUGUUCAAUUCUCCUACAGAAAGCAAGCAACAGAGGAUUGAGCAUCA
B7: chr15:31387667:31387668:-_ENSMUSG00000039100_ENSMUST00000090227|mus_hu|motif|central (ssRNA)
RNA: GGGAGUUCUACAGUCCGACGAUCUUUAAUACUAUAUGAAAAUUCUUUUAUAGUUUCUGAAGACCUAUGUUAUACGCUUUCGGUGAGAACUUCUAAAUUAUCGUUCAAAAACAAACACUACCCUUACGAUAUACCUUUAGCAUUCAACAGAGGAUUGAGCAUCA
B8: chr8:87797514:87797515:-_ENSMUSG00000031696_ENSMUST00000034131|mus_hu|FALSE|FALSE (ssRNA)
RNA: GGGAGUUCUACAGUCCGACGAUCAUUAUGGAAUCCACCUGGUCUUGAGAGACAAUUUCUGUGUUAUAAUCCAGAACAUUACUAAGCACAUAACAACUCAUGCUCUUUCUGGACUCGUAGUCAAAGUACUCAAAGAGUGGGUGACAACAGAGGAUUGAGCAUCA
B9: chr22:19452774:19452775:-_ENSG00000070010_ENST00000399523|hu_hu|hu_hu_hu_mus_False|88_98 (ssRNA)
RNA: GGGAGUUCUACAGUCCGACGAUCCUUCUCAUUGUAGUUGAUGGCAAUCACAUCCCCAGUCGUCAGACAGGCGAAGUUUCUCAAUGCAUUUUCUAAUACCGCUUUAGGGUUGGUAAUAUCCAGGAAGUCUGGGCUCUGAGGCUGCAACAGAGGAUUGAGCAUCA
B10: chrX:140365796:140365797:-_ENSMUSG00000031285_ENSMUST00000033642|mus_mus|mus_mus_mus_hu_False|1_1 (ssRNA)
RNA: GGGAGUUCUACAGUCCGACGAUCCUUCUCAUUACUCAGUGCCUGCAAGGUUCUGGUUCGGUAGAAGCUACAGUGGGCGCUGUGAGUGGGGCUAGGCAACCCAUUCAUCCGGGAGCCUCGCAUGUUCCUGGAUGUCUUGUCUCGCAACAGAGGAUUGAGCAUCA
B11: chr1:184378663:184378664:+_ENSMUSG00000026510_ENSMUST00000117245|mus_hu|FALSE|FALSE (ssRNA)
RNA: GGGAGUUCUACAGUCCGACGAUCUAAGAAAGGCAGUAAUUUAGUUGGGCUGAGUGGCCGAGGAAUUCUUUCGUUUUCAUGGUUCUCCUGAACUGAAGAAACAGGCUCUGUUUCAGGUUCUGGACUGCCAGGCUUGCCCUGGCUCAACAGAGGAUUGAGCAUCA
B12: chr13:100192331:100192332:-_ENSMUSG00000052727_ENSMUST00000064762|mus_mus|motif|central (ssRNA)
RNA: GGGAGUUCUACAGUCCGACGAUCUAGCAAAUGAUUAAAUUUAUAAAACGAGUAUUAGAAAGCUCCUAAAUUUCAUAAGCGGUUGGAAACACUUAAAACAUUCAUAUACACUGGGGAAACCAUUCACUAUGAUAUGUAACGUUACAACAGAGGAUUGAGCAUCA
B13: chr4:115894766:115894767:+_ENSMUSG00000028698_ENSMUST00000030464|mus_hu|mus_mus_mus_hu_True|88_108 (ssRNA)
RNA: GGGAGUUCUACAGUCCGACGAUCUUCACACGGAAAUUGUACUUCGGGUUUCCAACGGGCCAGUACCAGUCCGGCCAAACUACCCGAACAGGGUCCUCCCCCUCUCUCCUACAGAACACAACAAAAUGCCCCCGAACUUUCAAGCAACAGAGGAUUGAGCAUCA
B14: chr1:37488339:37488340:+_ENSMUSG00000026111_ENSMUST00000027285|mus_hu|FALSE|FALSE (ssRNA)
RNA: GGGAGUUCUACAGUCCGACGAUCAGCAGGGUCAUCUCUGGCCCACUGGUCCUUCGUCUGUUUUCGAUAAUGAAAAUUUCUGUAAACUCUCUGUGGGGAUGUGAACAGGUAGAGCAUCUGCCAGGCAGCAAAUUCAAAGUCCAUCAACAGAGGAUUGAGCAUCA
B15: chrX:20248820:20248821:+_ENSMUSG00000001924_ENSMUST00000001989|mus_mus|mus_mus_mus_hu_True|58_68 (ssRNA)
RNA: GGGAGUUCUACAGUCCGACGAUCGGCGAAGUCCGUCACCACAAAGUCAGGUUCUGCCAGUGAGGCCGGCAAGGAUUUAAAACUAAUCUUCUUAGGUACUUUGACCUGACUGACGAUGCCUCCACGGAUGUAGUCGGAGAAGUUCAACAGAGGAUUGAGCAUCA
B16: chr5:128448638:128448639:+_ENSG00000066583_ENST00000173527|hu_mus|hu_hu_hu_mus_False|8_18 (ssRNA)
RNA: GGGAGUUCUACAGUCCGACGAUCGGCACUCGCCUUAAUUAGGUUCUGAAUUUCCUUGAACUUCGGGUGGUCUUUGUCAGCCACCAGCUGUAGGAGGACAGCCUCACUAGUGGUCACUAUGAUCCCGGUUCGAGCGAGACGCUCCAACAGAGGAUUGAGCAUCA
B17: 88437549_88438432_921_CDS_ENSMUSG00000028059_ENSMUST00000029694|mouse|control|control (ssRNA)
RNA: GGGAGUUCUACAGUCCGACGAUCCACUUCUGGCUCCAUCUGCAACUCUUCCAGCAUCCCAGUGCGAAAGAGGCGGGUCAUAAUCUUCAAGGUUCUCACGUGGUGCAGCUCUGUCUGGAUCAGCUCAUAGAUGACAUCUUGCUUCAACAGAGGAUUGAGCAUCA
B18: chr5:4754414:4754415:-_ENSMUSG00000044674_ENSMUST00000054294|mus_mus|FALSE|FALSE (ssRNA)
RNA: GGGAGUUCUACAGUCCGACGAUCGAGUAAGCAAAGUGUAUUGUUGAUUGUGUACAACUUUUAGAUUGCAAAGACACAUCUAAUUGCAGUUUGGCUAAAACCAGAAAACAGCGUUUCACUUGGAGUAACUCCACUUCACUGAAACAACAGAGGAUUGAGCAUCA
B19: 215793453_215793573_2295_CDS_ENSG00000136636_ENST00000259154|human|control|control (ssRNA)
RNA: GGGAGUUCUACAGUCCGACGAUCAUUUUCAGGGACAGCUCUUUCUACAUUUCUGUUCAAAUUAAUAGUCUGGAAGUCCCUAUAACUGUGAAAGCUCUCAGUCCUUCUUGCCCUUGCUAAUAAAGGACUUUCUCUGUAAGGCCUCAACAGAGGAUUGAGCAUCA
B20: chr3:118931466:118931467:-_ENSG00000121578_ENST00000480814|hu_hu|FALSE|FALSE (ssRNA)
RNA: GGGAGUUCUACAGUCCGACGAUCACUGUGAUGUUGAUAUAUAAAGGAUUGUGUUCCACAGAUACUAAUUUAUAAGAACAACUACUCAACCCAUCUGUUCUCCAGACUCGUGACACUUGGUGUAAGAGCUUCAUCCGUUCUGCGCAACAGAGGAUUGAGCAUCA
B21: 57940872_57940992_4853_CDS_ENSMUSG00000003226_ENSMUST00000003310|mouse|control|control (ssRNA)
RNA: GGGAGUUCUACAGUCCGACGAUCUGAUACACAAGAUGUAGGCUGAUUCUGCUUAUUUGGAUACUGACAAGCAAUACAGUGAGUAGCACUGGCUUCAUUUCGGACAAAACACAAGCUACAGUCCCACUGUCCUUCUUUCUUGGCCAACAGAGGAUUGAGCAUCA
B22: chr1:58468927:58468928:-_ENSMUSG00000026034_ENSMUST00000148330|mus_mus|mus_mus_mus_hu_False|98_98 (ssRNA)
RNA: GGGAGUUCUACAGUCCGACGAUCAAUUACUGAAAAAUGAAAGAUGUACCUUAGCUAUGUACUUAAUGAACCAAAUUACCCAAACAAAAUAAACAUGGCAAUAUAAAAAUGUUAAGAAUUUACAAAGCUGUACAAAAUAACUUACAACAGAGGAUUGAGCAUCA

target: T1, UNK ZnF1-3; assay: nsRBNS (natural sequence RNA bind-n-seq); RBNS binding buffer (assumed for nsRBNS): 25 mM Tris pH 7.5, 150 mM KCl, 3 mM MgCl2, 0.01% Triton X-100, 500 ug/ml BSA, 20 U/ml SUPERase-In, 4 C; UNK is unkempt and MSI1 is Musashi-1; names of the RNAs are library labels; protein concentration not given here; high values mean tight binding

Row | Binder | binding signal
1 | B1 | 0.433 enrichment R
2 | B2 | 1.45 enrichment R
3 | B3 | 1.37 enrichment R
4 | B4 | 1.5 enrichment R
5 | B5 | 0.898 enrichment R
6 | B6 | 1.41 enrichment R
7 | B7 | 0.873 enrichment R
8 | B8 | 1.07 enrichment R
9 | B9 | 0.631 enrichment R
10 | B10 | 0.534 enrichment R
11 | B11 | 0.562 enrichment R
12 | B12 | 1.23 enrichment R
13 | B13 | 1.15 enrichment R
14 | B14 | 1.79 enrichment R
15 | B15 | 0.876 enrichment R
16 | B16 | 0.466 enrichment R
17 | B17 | 0.961 enrichment R
18 | B18 | 0.673 enrichment R
19 | B19 | 0.648 enrichment R
20 | B20 | 0.904 enrichment R
21 | B21 | 0.737 enrichment R
22 | B22 | 2.47 enrichment R
